Experimental data: article PMC6919601, “Identification of Plasmodium dipeptidyl aminopeptidase allosteric inhibitors by high throughput screening” (PLoS ONE, 2019)
Several values for one entry are separate records, joined by “and”; a condition that tells them apart may be missing. Identical values can stand only once. The whole screen tested about 110,000 compounds, of which about 230 (0.21%) showed an effect of 50% or more. The list shows a part of the results.

target: DPAP1 (Plasmodium falciparum, UniProt Q8IIJ9); assay: primary screen, percent inhibition; read by cleavage of a fluorogenic dipeptide substrate; higher = more effect of the substance; set-up: species or system P. falciparum D10 trophozoite lysates; single well
Sequence (Q8IIJ9 whole entry, looked up): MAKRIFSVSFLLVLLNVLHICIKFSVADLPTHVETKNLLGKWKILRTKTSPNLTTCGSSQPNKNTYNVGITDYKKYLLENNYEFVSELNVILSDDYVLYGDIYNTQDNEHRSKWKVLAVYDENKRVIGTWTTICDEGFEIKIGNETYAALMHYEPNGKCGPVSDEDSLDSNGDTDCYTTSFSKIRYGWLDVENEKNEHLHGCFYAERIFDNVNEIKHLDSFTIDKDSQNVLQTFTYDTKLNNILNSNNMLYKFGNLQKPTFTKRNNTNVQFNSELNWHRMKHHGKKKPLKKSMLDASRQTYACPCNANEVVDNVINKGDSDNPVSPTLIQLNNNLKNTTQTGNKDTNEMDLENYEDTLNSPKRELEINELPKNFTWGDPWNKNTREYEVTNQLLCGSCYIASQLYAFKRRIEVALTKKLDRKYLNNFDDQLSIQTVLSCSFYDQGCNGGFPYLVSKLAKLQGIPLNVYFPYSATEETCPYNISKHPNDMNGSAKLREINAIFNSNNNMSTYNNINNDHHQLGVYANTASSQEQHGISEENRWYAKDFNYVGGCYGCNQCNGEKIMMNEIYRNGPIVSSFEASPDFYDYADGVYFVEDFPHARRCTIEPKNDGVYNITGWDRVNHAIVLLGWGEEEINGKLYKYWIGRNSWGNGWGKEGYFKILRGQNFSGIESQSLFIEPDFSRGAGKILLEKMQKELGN
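Note: 30 min substrate incubation versus DMSO and 10 µM JCP410 controls.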

| Compound | % Inhibition @ 10 uM |
| --- | --- |
| O=C(O)c1ccccc1C(=O)Nc1cc(Cl)cc(Cl)c1 | -6.36% |
| Cc1ccc(C2c3c(oc4ccccc4c3=O)C(=O)N2CCCN2CCOCC2)cc1 (stereo not drawn) | -2.91% |
| Cc1ccc(NC(=O)CC2Sc3ccc(C(F)(F)F)cc3NC2=O)c(C)c1 (stereo not drawn) | -0.0938% |
| CCCCOc1ccc(C(=O)N(Cc2cccc(F)c2)C2CCS(=O)(=O)C2)cc1 (stereo not drawn) | 3.62% |
| CCC(C(=O)NCc1ccc(C)o1)n1nc(C)c2c(C)n(-c3ccccc3)nc2c1=O (stereo not drawn) | -10.2% |
| CC(=O)c1c(C)c[nH]c1C | 4.35% |
| O=C(CCSCCC(=O)N1CCCCCC1)N1CCCCCC1 | -1.36% |
| Cc1cc(C)c2nc(O)c(NC(N)=S)nc2c1 | -3.13% |
| COc1cc(CN2CCCCCC2)cc2c1OCO2 | 5.03% |
| Cc1noc2ncnc(N3CCCC(C(=O)NCCCN(C)Cc4ccccc4)C3)c12 (stereo not drawn) | 0.802% |
| Cc1ccc2c(c1)cc1c(=O)n(Cc3cccc(C(F)(F)F)c3)nc(C)n12 | 3% |
| Cc1cccc2c(C(=O)O)cc(-c3cc4ccccc4o3)nc12 | 0.709% |
| Cc1nc2n(CC(=O)N3CCCCC3)c3ccccc3n2n1 | 3.59% |
| N#Cc1c(NC(=O)CN2CCCCC2)sc2c1CCCC2 | 6.11% |
| CN1CCCN(Cc2ccc(F)cc2F)CC1 | 3.25% |
| CCn1c2ccccc2c2cc(CNC3CCCC3)ccc21 | 0.219% |
| Cc1ccc(C)c(C2C(C#N)=C(N)Oc3[nH]nc(-c4ccc5c(c4)OCO5)c32)c1 (stereo not drawn) | -1.06% |
| CCN1CCN(c2nc(-c3cccc(Cl)c3)c3c(n2)-c2ccccc2OC3)CC1 | 5.29% |
| CC(C)N(Cc1ccccc1)S(=O)(=O)c1ccc(-n2cccn2)cc1 | -0.913% |
| Cc1ccc(C)c(N(CC(=O)NCCSc2ccccn2)S(C)(=O)=O)c1 | -6.52% |
| O=C(NCCCN1CCCCC1)C1CCN(S(=O)(=O)c2cccc3nsnc23)CC1 | -9.18% |
| COc1ccc(/C=C2\N=C(c3ccccc3OC)OC2=O)cc1 | -1.65% |
| CCOC(=O)C1=C(C)N=c2s/c(=C\c3cccs3)c(=O)n2C1c1ccc2c(c1)OCO2 (stereo not drawn) | 1.72% |
| Nc1nc2sc3c(c2cc1C(=O)NCC(=O)O)CCCC3 | -3.48% |
| Cc1nn(CC(=O)NC(C)CCc2ccccc2)c(=O)c2nn(-c3ccccc3)c(C)c12 (stereo not drawn) | -3.05% |

| Compound | % Inhibition @ 10 uM |
| --- | --- |
| N#C/C(=C\c1cccc2ccccc12)c1nc(-c2ccc(Cl)cc2)cs1 | -0.268% |
| CC1CCCC(NC(=O)Cn2ncc3c4ccccc4nc-3c2O)C1C (stereo not drawn) | 0.244% |
| O=C(CSc1nc2cc(Br)ccc2[nH]1)NC1CCCCC1 | 1.89% |
| Cc1ccc(-n2nc3c(=O)n(CCCC(=O)N(C)Cc4ccccc4)nc(C)c3c2C)cc1 | -9.2% |
| CCOC(=O)c1c(N)sc2c1CC(C)(C)OC2 | 13.1% |
| CC(=O)c1cccc(NC(=O)c2cccc(Cl)c2)c1 | -1.88% |
| CC1(C)CC(=C2C(=O)c3ccccc3C2=O)C=C2c3ccccc3C(=O)C21 (stereo not drawn) | -11.3% |
| COc1cc(C2c3c(-c4ccccc4O)n[nH]c3C(=O)N2Cc2ccco2)ccc1O (stereo not drawn) | -3.12% |
| COc1cc(C(=O)CC2OC(O)C(Cl)=C2Cl)ccc1Cl (stereo not drawn) | -6.18% |
| COc1ccc(N2CCN(C(=O)c3ccc(N(C)S(C)(=O)=O)cc3)CC2)cc1 | 3.58% |
| CC(C)NC(=O)COc1ccc(S(=O)(=O)NC2CCCCC2)cc1 | 4.11% |
| O=C(NCCCN1CCCC1=O)c1cc2c(s1)CSC2 | 2.12% |
| CCn1c(C)cc(/C=C2/NC(=O)N(c3ccccc3)C2=O)c1C | -2.19% |
| O=S(=O)(Nc1cccc(Cl)c1Cl)c1ccc(Cl)cc1 | 4.04% |
| Cc1ccccc1OCCn1c(C)nc2ccccc21 | -8.85% |
| Cc1ccc(F)cc1NC(=O)C1CCCN1C(=O)OCC(C)C (stereo not drawn) | -4.65% |
| COc1ccc(S(N)(=O)=O)cc1C(=O)NCc1ccccc1 | 6.52% |
| Fc1ccc(CN2CCN(c3ccccn3)CC2)c(F)c1 | -3.94% |
| NC1=[N+](CC(=O)c2ccccc2)Cc2ccccc21 | 4.35% |
| CCn1nc(NS(=O)(=O)c2ccccc2)c2cc3cccc(C)c3nc21 | 1% |
| CCC(C)c1ccc(NS(=O)(=O)c2c(C)cc(C)cc2C)cc1 (stereo not drawn) | 2.22% |
| Cc1cc(C)c(S(=O)(=O)NCc2ccccc2)c(C)c1 | -4.43% |
| N#Cc1c(NCc2ccccc2)ccnc1O | -4.96% |
| CC(C)c1ccc(-c2c(NCCCc3ccccc3)c(=O)c2=O)cc1 | -4.07% |
| CCN(Cc1ccccc1)C(=O)Cn1c(SCc2cccc(F)c2)nc2cccnc21 | -1.68% |

| Compound | % Inhibition @ 10 uM |
| --- | --- |
| CCc1ccc(CNc2nc3nc(C)cc(O)n3n2)cc1 | -0.671% |
| O=C(Cn1cnc2ccccc21)c1ccccc1 | 2.73% |
| O=C(c1ccc(CNc2c(N3CCOCC3)c(=O)c2=O)cc1)N1CC=C(c2ccccc2)CC1 | 1.15% |
| COc1ccc(S(=O)Cc2ccc(C(=O)NCCc3ccc(OC)c(OC)c3OC)o2)cc1 (stereo not drawn) | -4.82% |
| CC(=O)c1c(C)cc(C)c(C(=O)O)c1C | -0.744% |
| COc1cccc(-c2cc(C(=O)NCC34CC5CC(CC(C5)C3)C4)on2)c1 | 3.27% |
| Cc1ccc(-n2nc3c(N4CCC(C(=O)NCc5ccc(Cl)cc5)CC4)nnc(C)c3c2C)cc1 | 4.4% |
| CCO/C(O)=C1\C(C)=NC2=C(C(=O)CC(C)(C)C2)C1c1c(C)nn(-c2ccccc2)c1C (stereo not drawn) | 5.5% |
| CCOC(=O)c1c(C)oc2nc(C)nc(NCc3ccco3)c12 | 2.77% |
| O=C(Nc1ccc(Br)cc1F)C1CC(=O)N(c2ccccc2)C1 (stereo not drawn) | 11.7% |
| Cc1c(C(=O)N(Cc2ccc(Cl)cc2)C2CCS(=O)(=O)C2)oc2ccccc12 (stereo not drawn) | -1.33% |
| COc1ccc(-n2nc3cc(C)c(NC(=O)c4cc(OC)c(OC)c(OC)c4)cc3n2)cc1 | -5.06% |
| Cc1nnc(NC(=O)CSc2cn(Cc3ccccc3C)c3ccccc23)s1 | 1.62% |
| CCSc1nnc(NC(=O)C2CCC(CNS(=O)(=O)c3cccc4nsnc34)CC2)s1 (stereo not drawn) | 1.26% |
| CC1=C(C(=O)Nc2cccnc2)C(c2ccc(Cl)c(Cl)c2)n2nc(-c3cccs3)nc2N1 (stereo not drawn) | 2.53% |
| NCC(O)COCCC12CC3CC(CC(C3)C1)C2 (stereo not drawn) | 0.00784% |
| CC(=O)N1N=C(c2ccccc2)CC1c1ccc(N(C)C)cc1 (stereo not drawn) | 5.87% and 1.92% |
| CCOC(=O)c1sc(NC(=O)c2noc3c2CCc2ccccc2-3)c(C(=O)OCC)c1C | -0.591% |
| O=C(CCCOc1ccc(Cl)cc1Cl)Nc1ccc(S(=O)(=O)N2CCCCC2)cc1 | -2.82% |
| CCOC(=O)N1CCN(c2cc(C)nc3c(-c4ccccc4OC)c(C)nn23)CC1 | -2.72% |
| Cc1ccc(N2CCN(Cc3c(C)n(C)n(-c4ccccc4)c3=O)CC2)cc1 | 3.15% |
| CCC1C(=O)C(CC)C(c2ccccc2)NC1c1ccccc1 (stereo not drawn) | 1% |
| COc1ccc(-c2[nH]nc3c2C(c2c[nH]nc2-c2ccc(F)cc2)C(C#N)=C(N)O3)cc1OC (stereo not drawn) | -0.25% |
| NC(=O)c1ccccc1NC(=O)c1ccc(Cn2cc(Br)cn2)o1 | -7.08% |
| N#Cc1cc2c(=O)n3ccccc3nc2n(CCc2ccccc2)c1=O | 1.12% |

| Compound | % Inhibition @ 10 uM |
| --- | --- |
| Cc1ccc(NC(=O)c2ccco2)cc1Br | -5.36% |
| COc1ccc(S(=O)(=O)c2c(SC)nn(C)c2N)cc1 | 2.14% |
| CCOc1ccc2nc(N3CCCC(C(=O)NC4CCCc5ccccc54)C3)sc2c1 (stereo not drawn) | -3.35% |
| Cc1nnc(N2CCC(C(=O)N(C)Cc3ccccc3)CC2)c2nn(-c3ccc(Cl)cc3)c(C)c12 | 10.2% |
| CCOC(=O)N1C(=O)c2ccccc2NC1(C(F)(F)F)C(F)(F)F | -10.7% |
| CC1CCCCN1C(=O)C1Sc2nnc(-c3ccccc3)n2NC1c1ccc(Cl)cc1 (stereo not drawn) | 7.94% |
| Cc1ccc(C2CC(C(F)(F)F)n3nc(C(=O)Nc4cccnc4Cl)cc3N2)cc1 (stereo not drawn) | 7.93% |
| CCCC[S+](O)CC(O)COc1ccc(Cl)cc1 (stereo not drawn) | -0.636% |
| CCCCN1C(=O)C(c2c(C)nn(-c3ccccc3)c2O)(C(F)(F)F)C2=C1CC(C)(C)CC2=O (stereo not drawn) | 1.91% |
| O=C1Nc2ccccc2C1(O)c1c[nH]c2ccccc12 (stereo not drawn) | 4.9% |
| COC(=O)c1nc(N)n(-c2nc(-c3cccs3)cc(C(F)(F)F)n2)n1 | -0.591% |
| COc1ccc(NC(=O)COc2ccccc2C(C)(C)C)cc1OC | -1.63% |
| CCCC12CN3CC(C)(CN(C1)C3c1cc3ccccc3[nH]1)C2=O (stereo not drawn) | -5.33% |
| COCCCNC(=O)c1cc(-c2ccc(OC)cc2)nc2[nH]nc(-c3ccc(F)cc3)c12 | 3.27% |
| COc1ccc(Br)cc1C1N2CC3(C)CN1CC(c1ccccc1)(C2)C3=O (stereo not drawn) | 6.7% |
| O=C1NC2=C(CCc3ccccc32)C(c2ccccc2)N1 (stereo not drawn) | 5.37% |
| Cc1ccccc1NC1=NC(=O)/C(=C/c2cccn2C)S1 | -2.22% |
| CC(C)(C)OC(=O)N[C@@H](CC1CCCCC1)C(=O)NCC#N | -6.98% |
| O=c1c(Cc2ccccc2)c(N2CCOCC2)nc2n1CCCS2 | 3.81% |
| CC(C)Oc1ccc(CC(=S)N2CCOCC2)cc1 | 3.05% |
| O=C1C2C3C=CC(C3)C2C(=O)N1Cc1ccccc1Cl (stereo not drawn) | 5.49% |
| COc1ccc(NC(=O)c2cnn(-c3ccccc3)c2C)cc1 | -1.52% |
| CCOC(=O)N1CCC(NC(=O)C2CCN(S(=O)(=O)N3CCC(C)CC3)CC2)CC1 | -4.97% |
| CC(C)NS(=O)(=O)c1ccc([N+](=O)[O-])cc1 | -3.48% |
